Assay results published in the supplement of paper PMC11741623.
The list shows a part of the results. Interaction screen of human proteins with wild-type SARS-CoV-2 proteins by split-DHFR complementation in yeast, 1 µg/mL methotrexate. Value = fitness of the pair (three or more lineages) minus that of the viral protein without a human partner, on a scale set by negative (0) and fused positive (1) controls, mean of up to three cultures; higher = more likely to interact. Active = false discovery rate below 0.05 (one-sided t-test) in at least one culture. Nearly all pairs are not hits, and differences among them are mostly noise (correlation between cultures about 0.3); most hits were seen in one culture only. Human sequences are the Swiss-Prot entries looked up by gene name; the clone may be another isoform. NSP2 values were corrected by the authors for a growth advantage. Listed are human proteins with a hit and a random twelfth of the others.

B1: PDPK1, O15530 (protein)
chain: MARTTSQLYDAVPIQSSVVLCSCPSPSMVRTQTESSTPPGIPGGSRQGPAMDGTAAEPRPGAGSLQHAQPPPQPRKKRPEDFKFGKILGEGSFSTVVLARELATSREYAIKILEKRHIIKENKVPYVTRERDVMSRLDHPFFVKLYFTFQDDEKLYFGLSYAKNGELLKYIRKIGSFDETCTRFYTAEIVSALEYLHGKGIIHRDLKPENILLNEDMHIQITDFGTAKVLSPESKQARANSFVGTAQYVSPELLTEKSACKSSDLWALGCIIYQLVAGLPPFRAGNEYLIFQKIIKLEYDFPEKFFPKARDLVEKLLVLDATKRLGCEEMEGYGPLKAHPFFESVTWENLHQQTPPKLTAYLPAMSEDDEDCYGNYDNLLSQFGCMQVSSSSSSHSLSASDTGLPQRSGSNIEQYIHDLDSNSFELDLQFSEDEKRLLLEKQAGGNPWHQFVENNLILKMGPVDKRKGLFARRRQLLLTEGPHLYYVDPVNKVLKGEIPWSQELRPEAKNFKTFFVHTPNRTYYLMDPSGNAHKWCRKIQEVWRQRYQSHPDAAVQ
B2: TRABD, Q9H4I3 (protein)
chain: MDGEEQQPPHEANVEPVVPSEASEPVPRVLSGDPQNLSDVDAFNLLLEMKLKRRRQRPNLPRTVTQLVAEDGSRVYVVGTAHFSDDSKRDVVKTIREVQPDVVVVELCQYRVSMLKMDESTLLREAQELSLEKLQQAVRQNGLMSGLMQMLLLKVSAHITEQLGMAPGGEFREAFKEASKVPFCKFHLGDRPIPVTFKRAIAALSFWQKVRLAWGLCFLSDPISKDDVERCKQKDLLEQMMAEMIGEFPDLHRTIVSERDVYLTYMLRQAARRLELPRASDAEPRKCVPSVVVGVVGMGHVPGIEKNWSTDLNIQEIMTVPPPSVSGRVSRLAVKAAFFGLLGYSLYWMGRRTASLVLSLPAAQYCLQRVTEARHK

target: SARS-CoV-2 E; assay: yeast fitness gain over the viral ORF with no human partner (scaled fitness); higher = more likely to interact
Protocol: (§1)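 Split mouse DHFR complementation in pooled diploid yeast: human ORFeome clones carry one fragment and viral ORFs the other; barcoded lineages compete in 1 µg/mL methotrexate and fitness is read by barcode sequencing in up to three cultures.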

**Q.** Which yeast fitness gain does the source give for B1 here?
**A.** inactive: -0.00478

**Q.** With B2 as the binder, how does the yeast fitness gain read?
**A.** inactive: 0.0541

target: SARS-CoV-2 M; assay: as above
Protocol: as §1

**Q.** How did the yeast fitness gain turn out when B1 was run?
**A.** inactive: -0.19

**Q.** For B2, which yeast fitness gain is on record?
**A.** inactive: 0.082

target: SARS-CoV-2 N; assay: as above
Protocol: as §1

**Q.** Which yeast fitness gain does the source give for B1 here?
**A.** inactive: 0.00866

**Q.** With B2 as the binder, how does the yeast fitness gain read?
**A.** inactive: 0.165

target: SARS-CoV-2 NSP1; assay: as above
Protocol: as §1

**Q.** For B1, which yeast fitness gain is on record?
**A.** inactive: -0.0212

**Q.** B2 was tested. Which yeast fitness gain did it give?
**A.** inactive: -0.0428

target: SARS-CoV-2 NSP10; assay: as above
Protocol: as §1

**Q.** How did the yeast fitness gain turn out when B1 was run?
**A.** inactive: 0.0695

**Q.** B2 was tested. Which yeast fitness gain did it give?
**A.** inactive: -0.0237

target: SARS-CoV-2 NSP12; assay: as above
Protocol: as §1

**Q.** How did the yeast fitness gain turn out when B1 was run?
**A.** inactive: -0.0203

**Q.** For B2, which yeast fitness gain is on record?
**A.** inactive: 0.109

target: SARS-CoV-2 NSP13; assay: as above
Protocol: as §1

**Q.** For B1, which yeast fitness gain is on record?
**A.** inactive: 0.0744

**Q.** With B2 as the binder, how does the yeast fitness gain read?
**A.** inactive: 0.0244

target: SARS-CoV-2 NSP14; assay: as above
Protocol: as §1

**Q.** B1 was tested. Which yeast fitness gain did it give?
**A.** inactive: -0.336

**Q.** Which yeast fitness gain does the source give for B2 here?
**A.** inactive: 0.0587

target: SARS-CoV-2 NSP15; assay: as above
Protocol: as §1

**Q.** B1 was tested. Which yeast fitness gain did it give?
**A.** inactive: -0.00518

**Q.** For B2, which yeast fitness gain is on record?
**A.** inactive: 0.011

target: SARS-CoV-2 NSP16; assay: as above
Protocol: as §1

**Q.** How did the yeast fitness gain turn out when B1 was run?
**A.** inactive: -0.437

**Q.** Which yeast fitness gain does the source give for B2 here?
**A.** inactive: -0.0352

target: SARS-CoV-2 NSP2; assay: as above
Protocol: as §1

**Q.** With B1 as the binder, how does the yeast fitness gain read?
**A.** inactive: -0.0872

**Q.** How did the yeast fitness gain turn out when B2 was run?
**A.** inactive: -0.103

target: SARS-CoV-2 NSP4; assay: as above
Protocol: as §1

**Q.** For B1, which yeast fitness gain is on record?
**A.** inactive: -0.127

**Q.** B2 was tested. Which yeast fitness gain did it give?
**A.** inactive: 0.00276

target: SARS-CoV-2 NSP5; assay: as above
Protocol: as §1

**Q.** B1 was tested. Which yeast fitness gain did it give?
**A.** inactive: 0.0322

**Q.** How did the yeast fitness gain turn out when B2 was run?
**A.** inactive: 0.0595

target: SARS-CoV-2 NSP6; assay: as above
Protocol: as §1

**Q.** For B1, which yeast fitness gain is on record?
**A.** inactive: 0.114

**Q.** Which yeast fitness gain does the source give for B2 here?
**A.** inactive: -0.00315

target: SARS-CoV-2 NSP7; assay: as above
Protocol: as §1

**Q.** For B1, which yeast fitness gain is on record?
**A.** inactive: -0.0631

**Q.** How did the yeast fitness gain turn out when B2 was run?
**A.** inactive: -0.0117

target: SARS-CoV-2 NSP8; assay: as above
Protocol: as §1

**Q.** B1 was tested. Which yeast fitness gain did it give?
**A.** inactive: 0.00841

**Q.** With B2 as the binder, how does the yeast fitness gain read?
**A.** inactive: -0.002

target: SARS-CoV-2 NSP9; assay: as above
Protocol: as §1

**Q.** How did the yeast fitness gain turn out when B1 was run?
**A.** inactive: -0.0855

**Q.** With B2 as the binder, how does the yeast fitness gain read?
**A.** inactive: -0.129

target: SARS-CoV-2 ORF10; assay: as above
Protocol: as §1

**Q.** B1 was tested. Which yeast fitness gain did it give?
**A.** inactive: -0.0618

**Q.** How did the yeast fitness gain turn out when B2 was run?
**A.** inactive: -0.00499

target: SARS-CoV-2 ORF3A; assay: as above
Protocol: as §1

**Q.** How did the yeast fitness gain turn out when B1 was run?
**A.** inactive: -0.135

**Q.** B2 was tested. Which yeast fitness gain did it give?
**A.** inactive: -0.0266

target: SARS-CoV-2 ORF3B; assay: as above
Protocol: as §1

**Q.** With B1 as the binder, how does the yeast fitness gain read?
**A.** inactive: 0.0702

**Q.** How did the yeast fitness gain turn out when B2 was run?
**A.** inactive: 0.0389

target: SARS-CoV-2 ORF6; assay: as above
Protocol: as §1

**Q.** Which yeast fitness gain does the source give for B1 here?
**A.** inactive: -0.0255

**Q.** How did the yeast fitness gain turn out when B2 was run?
**A.** inactive: 0.0561

target: SARS-CoV-2 ORF7A; assay: as above
Protocol: as §1

**Q.** B1 was tested. Which yeast fitness gain did it give?
**A.** inactive: 0.0182

**Q.** B2 was tested. Which yeast fitness gain did it give?
**A.** inactive: 0.0233

target: SARS-CoV-2 ORF7B; assay: as above
Protocol: as §1

**Q.** Which yeast fitness gain does the source give for B1 here?
**A.** inactive: -0.0475

**Q.** For B2, which yeast fitness gain is on record?
**A.** inactive: -0.0531

target: SARS-CoV-2 ORF8; assay: as above
Protocol: as §1

**Q.** With B1 as the binder, how does the yeast fitness gain read?
**A.** inactive: 0.0428

**Q.** With B2 as the binder, how does the yeast fitness gain read?
**A.** inactive: 0.0479

target: SARS-CoV-2 ORF9B; assay: as above
Protocol: as §1

**Q.** Which yeast fitness gain does the source give for B1 here?
**A.** inactive: -0.0181

**Q.** With B2 as the binder, how does the yeast fitness gain read?
**A.** inactive: 0.00261

target: SARS-CoV-2 ORF9Bwu (the 73-codon ORF); assay: as above
Protocol: as §1

**Q.** How did the yeast fitness gain turn out when B1 was run?
**A.** inactive: -0.0405

**Q.** For B2, which yeast fitness gain is on record?
**A.** inactive: -0.0682

target: SARS-CoV-2 S; assay: as above
Protocol: as §1

**Q.** How did the yeast fitness gain turn out when B1 was run?
**A.** inactive: 0.0415

**Q.** B2 was tested. Which yeast fitness gain did it give?
**A.** inactive: 0.0421
